Assay results published in paper PMC9386324.
No constants are given. Whether binding was seen depends on the method and setting. Binding seen in cells or lysates may run through a third protein. Some results given as binding are weak or reduced against the parent protein; the word gives no strength.

Protein sequences, listed by entry. Tags and fused reporters are not part of them. Lines headed by an entry give the natural chain unless they say otherwise; changes in a name come on top.
UniProt Q92993: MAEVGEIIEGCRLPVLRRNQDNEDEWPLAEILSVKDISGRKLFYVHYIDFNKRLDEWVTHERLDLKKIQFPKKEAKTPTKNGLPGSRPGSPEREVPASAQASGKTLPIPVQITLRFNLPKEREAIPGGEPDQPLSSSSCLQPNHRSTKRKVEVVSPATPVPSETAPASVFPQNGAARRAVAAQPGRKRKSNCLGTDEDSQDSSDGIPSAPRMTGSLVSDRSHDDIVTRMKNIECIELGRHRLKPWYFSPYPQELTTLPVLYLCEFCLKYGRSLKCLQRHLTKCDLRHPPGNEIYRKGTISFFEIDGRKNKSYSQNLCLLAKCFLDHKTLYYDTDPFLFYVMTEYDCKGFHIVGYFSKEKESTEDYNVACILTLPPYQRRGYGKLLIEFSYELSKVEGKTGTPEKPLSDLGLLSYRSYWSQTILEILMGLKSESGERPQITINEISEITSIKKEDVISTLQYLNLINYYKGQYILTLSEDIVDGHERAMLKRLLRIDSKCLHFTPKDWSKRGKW
UniProt Q49AJ0: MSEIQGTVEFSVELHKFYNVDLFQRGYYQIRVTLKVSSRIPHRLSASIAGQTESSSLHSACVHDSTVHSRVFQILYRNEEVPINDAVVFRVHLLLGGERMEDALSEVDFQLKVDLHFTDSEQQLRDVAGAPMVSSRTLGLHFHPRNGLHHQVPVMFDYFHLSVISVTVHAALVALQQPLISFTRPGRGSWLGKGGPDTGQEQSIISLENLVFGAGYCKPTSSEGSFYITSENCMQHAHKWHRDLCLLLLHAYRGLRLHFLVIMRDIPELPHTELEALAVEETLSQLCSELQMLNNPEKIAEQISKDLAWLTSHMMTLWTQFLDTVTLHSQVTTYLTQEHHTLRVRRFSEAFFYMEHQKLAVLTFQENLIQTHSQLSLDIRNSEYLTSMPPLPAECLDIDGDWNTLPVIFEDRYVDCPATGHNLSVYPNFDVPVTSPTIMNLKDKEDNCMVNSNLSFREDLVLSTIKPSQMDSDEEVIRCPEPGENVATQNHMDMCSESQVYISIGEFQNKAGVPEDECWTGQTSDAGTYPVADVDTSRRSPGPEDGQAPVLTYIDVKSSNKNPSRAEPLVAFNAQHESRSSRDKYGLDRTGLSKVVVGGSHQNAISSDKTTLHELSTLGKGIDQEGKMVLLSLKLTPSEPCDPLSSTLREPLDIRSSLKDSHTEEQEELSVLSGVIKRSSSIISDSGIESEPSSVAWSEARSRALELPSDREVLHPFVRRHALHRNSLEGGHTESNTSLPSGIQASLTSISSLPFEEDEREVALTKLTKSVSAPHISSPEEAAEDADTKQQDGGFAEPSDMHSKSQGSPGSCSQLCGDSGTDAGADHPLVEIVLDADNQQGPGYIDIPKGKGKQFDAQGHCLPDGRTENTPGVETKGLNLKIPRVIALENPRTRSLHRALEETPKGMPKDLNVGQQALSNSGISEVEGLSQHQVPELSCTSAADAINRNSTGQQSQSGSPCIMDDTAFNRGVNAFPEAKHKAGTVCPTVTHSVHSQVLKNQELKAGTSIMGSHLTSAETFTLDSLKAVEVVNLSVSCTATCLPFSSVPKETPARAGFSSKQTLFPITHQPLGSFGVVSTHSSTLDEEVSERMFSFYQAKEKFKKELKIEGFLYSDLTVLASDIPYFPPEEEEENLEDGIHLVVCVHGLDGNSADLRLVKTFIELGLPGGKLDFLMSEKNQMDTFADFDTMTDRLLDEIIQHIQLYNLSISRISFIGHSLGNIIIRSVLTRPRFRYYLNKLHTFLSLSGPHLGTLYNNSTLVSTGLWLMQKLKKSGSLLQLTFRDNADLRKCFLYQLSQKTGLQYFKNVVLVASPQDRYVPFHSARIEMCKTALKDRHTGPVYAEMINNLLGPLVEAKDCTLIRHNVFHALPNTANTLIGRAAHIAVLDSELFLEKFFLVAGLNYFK

Columns and labels:
[1] = molecular target: Tat-interactive protein 60-kDa (TIP60), endogenous (human (endogenous in KYSE30 and KYSE510)) (UniProt Q92993); test: proximity ligation; Duolink PLA in KYSE30-FAM135B cells, FAM135B and TIP60; resting conditions and after BLM treatment (signal significantly reduced)
[2] = molecular target: Tat-interactive protein 60-kDa (TIP60), endogenous (human (endogenous in KYSE30 and KYSE510)) (UniProt Q92993); test: co-IP; KYSE30 cells stably expressing FAM135B-FLAG; IP with anti-FLAG, anti-FAM135B or anti-TIP60, IgG as control; protein A/G Sepharose, NT-2 buffer, 4°C overnight
[3] = molecular target: GST-FAM135B fusion protein (UniProt Q49AJ0); test: pull-down; GST-FAM135B on glutathione beads incubated with lysates of HEK-293T cells expressing MYC-TIP60 full length or truncated fragments; GST pull-down kit (Bersin bio); western blot; only the target purified
[4] = molecular target: FAM135B-FLAG (UniProt Q49AJ0); test: co-IP; KYSE30 cells stably expressing FAM135B-FLAG; IP with anti-FLAG, anti-FAM135B or anti-TIP60, IgG as control; protein A/G Sepharose, NT-2 buffer, 4°C overnight
[5] = molecular target: sequence similarity 135 family member B (FAM135B), endogenous (human (endogenous in KYSE510)) (UniProt Q49AJ0); test: co-IP; endogenous proteins in KYSE510 lysate (RIPA); IP with anti-FAM135B or anti-TIP60, IgG as control; protein A/G Sepharose, NT-2 buffer (50 mM Tris-HCl pH 7.4, 150 mM NaCl, 1 mM MgCl2, .25% NP40), 4°C overnight
[6] = molecular target: Tat-interactive protein 60-kDa (TIP60), endogenous (human (endogenous in KYSE30 and KYSE510)) (UniProt Q92993); test: as above

Row | Substance | binding [3] | further results
1 | FAM135B-FLAG (from UniProt Q49AJ0 1-1406) | – | binding [1]: binds; binding [2]: binds
2 | MYC-TIP60 full length (FL, 1-513 aa) (from UniProt Q92993 1-513) | binds | –
3 | MYC-TIP60 Δ1 (1-258 aa, containing the chromodomain, ChD) (from UniProt Q92993 1-258) (domain or fragment) | binds | –
4 | MYC-TIP60 Δ2 (69-290 aa, harbouring the Zinc finger domain, ZinF) (from UniProt Q92993 69-290) (domain or fragment) | no binding | –
5 | MYC-TIP60 Δ3 (158-395 aa, including the ZinF and acetyl-CoA-binding domain, AcCoA) (from UniProt Q92993 158-395) (domain or fragment) | no binding | –
6 | MYC-TIP60 Δ4 (285-513 aa, including the AcCoA and NR domain) (from UniProt Q92993 285-513) (domain or fragment) | no binding | –
7 | Tat-interactive protein 60-kDa (TIP60), endogenous (from UniProt Q92993 1-513) | – | binding [4]: binds; binding [5]: binds
8 | sequence similarity 135 family member B (FAM135B), endogenous (from UniProt Q49AJ0 1-1406) | – | binding [6]: binds
